Measurements taken from PubChem BioAssay AID463173 (ICCB-Longwood Screening Facility, Harvard Medical School, 2010).
In all, about 52,000 compounds went through this assay and about 1,700 (3.3%) were called active. Rule as the data show it: active = survival mostly below about 52% (no sharp cut-off); inactive = mostly above about 56%. The list shows a part of the results.

The compounds below were run on Wild type (assay: growth inhibition of S. aureus wild type versus tarO mutant, primary screen, teichoic acid synthesis inhibitors, RN4220, OD600 (AID 463173)). Details: S. aureus RN4220 wild type/DeltatarO growth, OD600, 18 h, active compounds read low, screened at 18.75 µg/mL (by protocol).
With `Cc1ccc(NC(=O)c2c(C)nc3sc(C(=O)Nc4ccc(F)cc4)c(N)c3c2-c2ccc(Cl)cc2)c(C)c1` the survival was inactive: 70%. With `COc1cccc(NC(=O)CCc2nnc3n(Cc4ccccc4Cl)c(=O)c4ccccc4n23)c1` the survival was inactive: 84%. `COC(=O)C1=C(C)OC(N)=C(C#N)C1c1cc2ccc(C)cc2[nH]c1=O` (centres undefined) was tested, and the survival was inactive: 113%. With `Cc1ccc(NCc2nnc(SCC(=O)N3CCOCC3)o2)c(C)c1` the survival was inactive: 109%. With `CCOc1ccccc1C(=O)Nc1ccc(-n2nncc2-c2ccccc2)cc1` the survival was inactive: 140%. `COc1ccccc1C(=O)Nc1nnc(S(=O)(=O)N2CCN(c3ccc(F)cc3)CC2)s1` was tested, and the survival was inactive: 78%. For `CCOC(=O)c1ccc(NC(=O)c2sc3ccccc3c2Cl)cc1`, the survival was inactive: 78%. `Cc1ccc(-c2nnc3ccccc3c2C(=O)Nc2ccc(C)c(F)c2)cc1` was tested, and the survival was inactive: 74%. `CCOC(=O)c1ccc(NC2(c3ccccc3)C(=O)c3ccccc3C2=O)cc1` was tested, and the survival was inactive: 89%. For `COc1cc(OC)c(NS(=O)(=O)c2cc3c(cc2C)N(C(C)=O)CCO3)cc1Cl`, the survival was inactive: 79%. In the case of `CCc1nnc(SCc2nc(-c3cccc(Cl)c3)oc2C)c2cc3sc(C)cc3n12`, the survival is reported as inactive: 85%. For `CN(C)CCN1C(=O)c2ccccc2C1=O`, the survival was inactive: 106%. `COc1ccccc1NC(=O)CN(c1cc(C)cc(C)c1)S(=O)(=O)c1c(C)[nH]c(=O)[nH]c1=O` was tested, and the survival was inactive: 132%. With `CCC(C(=O)Nc1ccc(C(C)C)cc1)n1nc(C)n2c(cc3cc(C)ccc32)c1=O` (centres undefined) the survival was inactive: 74%. `NC(=O)c1c(NC(=O)c2cc(-c3ccc(F)cc3)on2)sc2c1CCCC2` was tested, and the survival was inactive: 68%. For `Cc1cccc(NC(=O)Cn2nnc(C(=O)NCc3cccs3)c2N)c1`, the survival was inactive: 89%. `Cc1ccc(C)c(Cn2c(=O)cc(C(F)(F)F)c3c(C)nn(C)c32)c1` was tested, and the survival was inactive: 99%. `Cc1ccccc1C(=O)NCc1nc(-c2ccc(Cl)cc2)no1` was tested, and the survival was inactive: 57%. `CC(=O)Nc1cc(-c2ccc(Cl)cc2)[nH]n1` was tested, and the survival was inactive: 100%. In the case of `CN(C)c1ccc(CNC(=O)C2CCCN(S(=O)(=O)c3ccc4c(c3)CCCC(=O)N4)C2)cc1` (centres undefined), the survival is reported as inactive: 128%. For `CC(=O)Nc1ccc(NC(NC(=O)c2ccco2)C(=O)c2ccc(Cl)cc2)cc1` (centres undefined), the survival was inactive: 99%. With `COc1ccc(Cl)cc1NC(=O)CCn1c(=O)c2cccn2c2ccccc21` the survival was inactive: 59%. For `CCOc1ccc2oc(=O)cc(CN3CCN(Cc4ccc(C)cc4)CC3)c2c1`, the survival was inactive: 71%. For `Cc1ccc(Nc2c3c(nc4nc(-c5cccs5)nn24)CCCC3)cc1F`, the survival was active: -3%. With `Cc1cc(OCCN2CCOCC2)nc(N2CCOCC2)n1` the survival was inactive: 97%. For `COc1ccc(N2C(=O)CSC23C(=O)N(Cc2cccc(C(F)(F)F)c2)c2ccccc23)cc1` (centres undefined), the survival was inactive: 73%. In the case of `CN(CCc1ccccn1)C(=O)c1nn2c(C(F)(F)F)cc(-c3ccco3)nc2c1Cl`, the survival is reported as inactive: 104%. For `COc1ccccc1OCC(=O)N(Cc1cccs1)C1CCS(=O)(=O)C1` (centres undefined), the survival was inactive: 65%. In the case of `Cc1ccc(S(=O)(=O)c2nc(-c3cccs3)oc2SCC(=O)Nc2cc(C)cc(C)c2)cc1`, the survival is reported as inactive: 83%. `COc1ccccc1CNc1nc(-c2ccco2)nn1S(C)(=O)=O` was tested, and the survival was inactive: 86%. In the case of `Cc1cccc(Cn2c(=O)n(CCCC(=O)NCc3ccccc3Cl)c(=O)c3ccccc32)c1`, the survival is reported as inactive: 125%. With `Cc1cc(-c2ccc(C)c(S(=O)(=O)Nc3ccccn3)c2)on1` the survival was inactive: 73%. In the case of `COc1cc(OC)c(NS(=O)(=O)c2c(C(=O)N3CCCCCC3)c(C)n(C)c2C)cc1Cl`, the survival is reported as inactive: 54%. In the case of `COc1ccc(-n2cc(-c3ccccc3)nc2SCC(=O)Nc2ccccc2C)cc1`, the survival is reported as inactive: 70%. For `CCOC(=O)N1CCc2c(sc(NCc3cccc(F)c3)c2C(=O)Nc2ccc(OC)cc2)C1`, the survival was inactive: 126%. In the case of `Cc1ccc(CNc2nc3ccc(Cl)cc3n3nnnc23)cc1`, the survival is reported as inactive: 93%. For `COC(=O)CC1Oc2ccc(F)cc2-n2cc(-c3ccc(C)cc3)nc21` (centres undefined), the survival was inactive: 105%. In the case of `COc1cc(NC(=O)CCn2c(=O)oc3ccccc32)cc(OC)c1OC`, the survival is reported as inactive: 89%. For `CSc1ccc(NC(=O)C2CCN(c3ncccn3)CC2)cc1`, the survival was inactive: 124%. For `CCN1CCN(c2ncc3c(n2)CCN(CC(C)C)C3)CC1`, the survival was inactive: 82%. In the case of `COc1ccc(N(Cc2cccs2)C(=O)COc2cccc(C)c2C)cc1`, the survival is reported as active: 12%. In the case of `Cc1cccc(CC(=O)N2CC(=O)Nc3ccc(C)cc3C2c2ccc(F)cc2)c1` (centres undefined), the survival is reported as inactive: 83%. With `CCOc1ccc(-n2ccnc2SCC(=O)Nc2cccc3ccccc23)cc1` the survival was inactive: 86%. In the case of `O=C(CSc1nnc(Cn2nnc3ccccc32)o1)N(Cc1ccc(Cl)cc1)c1ccccc1`, the survival is reported as inactive: 141%. `N=c1c(S(=O)(=O)c2ccccc2)cc2c(=O)n3ccccc3nc2n1Cc1cccnc1` was tested, and the survival was inactive: 107%. With `COc1ccc(Br)cc1CNC(=O)c1ccc2nc(C(C)C)oc2c1` the survival was inactive: 75%. For `CCOc1ccccc1CNC(=O)CCC(=O)N1CCSc2ccccc21`, the survival was inactive: 102%. With `Clc1nc2ccccc2c(N2CCCCC2)c1CNC1CC1` the survival was inactive: 100%. For `COc1ccccc1Cc1nc2ccccc2nc1SCC(=O)Nc1ccc2c(c1)OCO2`, the survival was inactive: 45%. For `COc1ccccc1CNC(=O)CCCCn1c(=O)c2ccccc2n(CC(=O)Nc2c(C)cc(C)cc2C)c1=O`, the survival was inactive: 102%. With `O=[N+]([O-])c1cc(-c2nc(-c3ccccc3)no2)ccc1NCc1cccnc1` the survival was inactive: 76%. `Cc1ccc(NC(=O)CN2C(=O)C(c3ccc(C(C)(C)C)cc3)=NC2(C)C)cc1` was tested, and the survival was inactive: 74%. With `CCCN(CCC)C(=O)CSc1c2c(nc3ccc(Cl)cc13)CCCC2` the survival was inactive: 52%. In the case of `Nc1nnc(CCc2ccccc2)s1`, the survival is reported as inactive: 110%. In the case of `COc1ccc(N2CCN(C(=O)COc3ccccc3C#N)CC2)cc1`, the survival is reported as inactive: 86%. `Cc1cc(C)cc(-n2c(SCC(=O)Nc3cccc(F)c3)nc3c([nH]c4ccccc43)c2=O)c1` was tested, and the survival was inactive: 76%. `Cc1ccc(S(=O)(=O)CCc2nnc(NC(=O)CCCC(=O)Nc3cc(C)on3)s2)cc1` was tested, and the survival was inactive: 105%. In the case of `Brc1ccc(Nc2c3c(nc4nncn24)CCC3)cc1`, the survival is reported as inactive: 80%. In the case of `Cc1ccc(C(=O)Nc2ccc(-c3nc4ccccc4o3)cc2)cc1Cl`, the survival is reported as inactive: 91%. `C=CCn1c(SCC(=O)Nc2cc(OC)c(NC(=O)c3ccco3)cc2OC)nnc1-c1ccncc1` was tested, and the survival was inactive: 98%. In the case of `Cc1ccc(C)c(NC(=O)C(Cc2ccccc2)n2cccc2)c1` (centres undefined), the survival is reported as inactive: 134%. For `CCOC(=O)C1=C(N)Oc2cc(C)oc(=O)c2C1c1ccccc1F` (centres undefined), the survival was inactive: 104%. In the case of `COc1ccc(OC)c(NC(=O)Cn2c(=O)n(Cc3ccco3)c(=O)c3cc(OC)c(OC)cc32)c1`, the survival is reported as inactive: 65%. `Cc1ccc(NC(=O)C2CCC(CNS(=O)(=O)c3ccc4c(c3)CCCC(=O)N4)CC2)cc1F` (centres undefined) was tested, and the survival was inactive: 72%. `COCCNc1nc2c(c(=O)n(Cc3cccc(Cl)c3)c(=O)n2C)n1C` was tested, and the survival was inactive: 71%. `COc1ccc(OCC(=O)Nc2c(C(=O)N3CCN(c4ccccc4)CC3)oc3ccccc23)cc1` was tested, and the survival was inactive: 91%. `CCc1ccc(NC(=O)C2=C(C)C(=O)OC23CCCCC3)cc1` was tested, and the survival was inactive: 92%. `COc1ccc2c(c1)c1c(c(=O)n(Cc3ccccc3)c(=O)n1Cc1ccccc1Cl)n2C` was tested, and the survival was inactive: 84%. `O=C(O)c1cccc(NC(=O)c2cc3cc(Br)cc(Br)c3oc2=O)c1` was tested, and the survival was inactive: 79%. `COc1ccc(-c2[nH]nc3oc(=O)cc(C)c23)cc1` was tested, and the survival was inactive: 111%. In the case of `Cc1cccc(C)c1NC(=O)C(c1ccccc1)N(Cc1ccco1)C(=O)Cn1nnc2ccccc21` (centres undefined), the survival is reported as inactive: 116%. In the case of `CCOC(=O)c1c(-c2ccc(OC)c(OC)c2)csc1NC(=O)c1ccc(C)cc1`, the survival is reported as inactive: 77%. In the case of `CCCCN1CCCc2cc(CN(CCCN3CCOCC3)C(=O)Nc3ccc(CC)cc3)ccc21`, the survival is reported as inactive: 73%. For `CCOC(=O)c1cc(-c2ccccc2)n(CCC(=O)NCCc2cccc(C)c2)c1C`, the survival was inactive: 49%. With `COc1ccc(S(=O)(=O)NCCc2sc3nc(-c4ccc(C)cc4)nn3c2C)cc1C` the survival was inactive: 82%. `CCCCNc1oc(-c2ccc(COc3ccccc3C)o2)nc1C#N` was tested, and the survival was inactive: 125%. With `COc1ccc(S(=O)(=O)N(CC(=O)NCCSc2ccccc2)c2ccc(C)cc2)cc1` the survival was inactive: 67%. For `Cc1cc(=O)[nH]c(SCC(=O)NC2CCCCC2)n1`, the survival was inactive: 113%. In the case of `CC(=O)c1cccc(NC(=O)Cc2ccc(NC(=O)N3CCCCc4ccccc43)cc2)c1`, the survival is reported as inactive: 60%. For `CCC(=O)N1CCc2cc(S(=O)(=O)CCC(=O)N3CCN(c4ccccc4F)CC3)ccc21`, the survival was inactive: 87%. For `Cc1ccc(CNC(=O)c2cc3sccc3n2Cc2ccc(F)cc2)cc1`, the survival was inactive: 98%. `Cc1cc2oc(C(=O)Nc3nc(-c4ccccc4)ns3)c(C)c2cc1Cl` was tested, and the survival was inactive: 71%. `Cc1ccc(NC(=O)CN2C(=O)CCc3cc(S(=O)(=O)N4CCOCC4)ccc32)c(C)c1` was tested, and the survival was inactive: 71%. In the case of `CCOc1ccc(CNC(=O)c2sc3nc(C)cc(C)c3c2-n2cccc2)cc1`, the survival is reported as inactive: 95%. In the case of `CN1CCN(C(CNC(=O)C(=O)Nc2ccc(F)cc2)c2cccnc2)CC1` (centres undefined), the survival is reported as inactive: 96%. In the case of `Cc1ccc(C)c(Cn2nnc(C(=O)NCc3ccccc3)c2N)c1`, the survival is reported as inactive: 83%. `CC(=O)c1ccc(NS(=O)(=O)c2ccc3[nH]c4c(c3c2)CCCCCC4)cc1` was tested, and the survival was inactive: 82%. `CCC(CC)C(=O)N1CCc2cc(OC)c(OC)cc2C1COc1ccccc1OC` (centres undefined) was tested, and the survival was inactive: 66%. For `Cc1nc2cc(-c3cccc(F)c3)nn2c(C)c1CCC(=O)NC1CCCCC1`, the survival was inactive: 94%.
